Molecules are shown by their SMILES. Screen size: about 39,000 compounds; about 220 (0.56%) showed activity. This is one part of the list.
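Note: static incubation at 37 °C against the wild-type strain, values averaged over two biological replicates.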

This test concerns Escherichia coli K-12 BW25113. As to the kind of experiment: relative growth (OD600 normalised to plate interquartile mean) (fraction); higher = less growth inhibition, active = 0.2 or less. The conditions noted are these: 50 µM; LB; incubation time: overnight (16-24 h).
Turning to `CO[C@H]1CN(C)C(=O)c2ccc(NS(C)(=O)=O)cc2OC[C@@H](C)N(C(=O)C2CCOCC2)C[C@@H]1C`, the relative growth is inactive: 1.
With `Cc1noc(C)c1S(=O)(=O)N(C)C[C@H]1Oc2ccc(NS(=O)(=O)c3ccc(F)cc3)cc2CC(=O)N([C@@H](C)CO)C[C@@H]1C`, the relative growth is inactive: 1.02.
Next, `COc1ccc(NC(=O)N(C)C[C@@H]2OCCCC[C@@H](C)Oc3ccc(NS(=O)(=O)c4ccc(OC)cc4)cc3C(=O)N([C@@H](C)CO)C[C@H]2C)cc1`: inactive: 1.05; `CCn1nnc(NC(=O)Cc2ccccc2)n1`: inactive: 0.968; `COc1ccc(S(=O)(=O)N(C)C[C@@H]2Oc3c(NC(=O)C4CCOCC4)cccc3C(=O)N([C@@H](C)CO)C[C@H]2C)cc1`: inactive: 1.01.
Regarding `C[C@H]1CN([C@@H](C)CO)C(=O)c2cc(NC(=O)Nc3ccccc3)ccc2O[C@H]1CN(C)S(=O)(=O)c1cn(C)cn1`, the relative growth was inactive: 1.
Take `NNC(=S)Nc1ccccc1`: the relative growth was inactive: 1.01.
For `C[C@H]1CN([C@@H](C)CO)S(=O)(=O)c2ccc(C#CC3CCCC3)cc2O[C@@H]1CN(C)C(=O)Cc1ccncc1`, the relative growth is inactive: 1.02.
As to `C=CCON1C(=O)[C@@H]2[C@@H](C1=O)[C@@H]1C=C[C@@H]2O1`, the relative growth is inactive: 1.
Regarding `OC[C@H]1O[C@H](n2nnc3ccccc32)[C@@H](O)[C@@H](O)[C@@H]1O`, the relative growth is inactive: 0.989.
As for `C[C@@H]1CN([C@H](C)CO)C(=O)CCCn2cc(nn2)CO[C@H]1CN(C)S(=O)(=O)c1ccc(C#N)cc1`, the figure is inactive: 0.984; as for `COc1ccc(NC(=O)N(C)C[C@H]2Oc3ccc(NC(=O)C4CC4)cc3C(=O)N([C@@H](C)CO)C[C@H]2C)cc1`, inactive: 0.963; as for `C[C@H](CO)N1C[C@H](C)[C@@H](CN(C)Cc2ccc(Cl)c(Cl)c2)Oc2ccc(NC(=O)Nc3ccccc3)cc2CC1=O`, inactive: 0.97.
Take `C[C@@H]1CCCCO[C@H](CN(C)C(=O)Nc2ccc(F)cc2)[C@@H](C)CN([C@H](C)CO)C(=O)c2cc(NC(=O)c3ccncc3)ccc2O1`: the relative growth was inactive: 0.996.
In the case of `Cc1noc(C)c1S(=O)(=O)Nc1ccc2c(c1)CC(=O)N([C@H](C)CO)C[C@H](C)[C@H](CN(C)S(C)(=O)=O)O2`, the relative growth was inactive: 1.02.
For `O=C(O)c1ccc2c(c1)OCO2`, the relative growth was inactive: 0.853.
Consider `O=C(C[C@H]1C[C@H]2c3cc(NC(=O)C4CCOCC4)ccc3O[C@H]2[C@H](CO)O1)NCCN1CCCCC1`, for which the relative growth was inactive: 1.02.
Next, `Clc1cccc(Cc2cn3cc(-c4ccccc4)nc3s2)c1`: inactive: 1.01.
Turning to `O=C(N[C@H](NC(=S)Nc1ccc(F)c([N+](=O)[O-])c1)C(Cl)(Cl)Cl)C(c1ccccc1)c1ccccc1`, the relative growth is inactive: 1.13.

The record behind these values is the supplement of paper PMC9446081.
